Laboratory results taken from PMC4336329 (PLoS ONE, 2015).
The campaign covered roughly 310,000 compounds. About 2,200 (0.71%) showed an effect of 50% or more. The effect is printed as a negative number. The list shows a part of the results.

biological target: human ether-à-go-go-related gene (hERG) potassium channel (human, UniProt Q12809); experiment: primary screen, population patch clamp on CHO cells stably expressing hERG
Sequence (Q12809 whole entry, looked up): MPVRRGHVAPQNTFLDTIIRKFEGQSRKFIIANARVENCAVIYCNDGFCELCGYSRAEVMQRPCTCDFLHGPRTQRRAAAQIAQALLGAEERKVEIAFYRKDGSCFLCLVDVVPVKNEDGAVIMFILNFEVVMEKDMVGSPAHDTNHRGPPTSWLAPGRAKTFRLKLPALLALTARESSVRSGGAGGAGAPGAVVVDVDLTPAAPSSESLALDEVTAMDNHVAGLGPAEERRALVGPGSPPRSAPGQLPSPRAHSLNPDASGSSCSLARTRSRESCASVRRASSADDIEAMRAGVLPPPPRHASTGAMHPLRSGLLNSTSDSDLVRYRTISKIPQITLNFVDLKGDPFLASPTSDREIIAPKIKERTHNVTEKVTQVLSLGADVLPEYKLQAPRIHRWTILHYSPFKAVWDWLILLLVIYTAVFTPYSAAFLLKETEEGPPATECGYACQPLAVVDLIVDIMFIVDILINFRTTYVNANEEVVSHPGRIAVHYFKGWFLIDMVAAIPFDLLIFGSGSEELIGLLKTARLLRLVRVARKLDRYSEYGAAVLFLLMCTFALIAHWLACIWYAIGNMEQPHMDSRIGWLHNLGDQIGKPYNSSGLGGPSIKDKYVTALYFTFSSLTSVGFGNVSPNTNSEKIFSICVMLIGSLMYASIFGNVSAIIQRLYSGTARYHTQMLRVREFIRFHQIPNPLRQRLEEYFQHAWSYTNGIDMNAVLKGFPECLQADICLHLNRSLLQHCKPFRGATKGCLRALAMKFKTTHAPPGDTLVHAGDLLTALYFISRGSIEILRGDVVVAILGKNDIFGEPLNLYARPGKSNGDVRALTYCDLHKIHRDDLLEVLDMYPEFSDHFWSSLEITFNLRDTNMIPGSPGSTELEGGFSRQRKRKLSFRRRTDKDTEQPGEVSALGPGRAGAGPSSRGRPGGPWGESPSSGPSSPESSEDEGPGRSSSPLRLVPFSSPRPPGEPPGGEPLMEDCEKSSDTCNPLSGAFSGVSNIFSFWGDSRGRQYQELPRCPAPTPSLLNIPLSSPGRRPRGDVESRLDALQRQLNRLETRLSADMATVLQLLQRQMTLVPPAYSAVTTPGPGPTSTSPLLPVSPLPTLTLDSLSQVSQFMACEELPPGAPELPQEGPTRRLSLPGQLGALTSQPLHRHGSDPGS

| SMILES | hERG current change (%, negative = inhibition) at 1uM [%] |
| --- | --- |
| Nc1ccc(Nc2ccncc2[N+](=O)[O-])cc1 | 15.5 |
| CN(CC(=O)Nc1ccc(Cl)c(C(F)(F)F)c1)C(=O)C1CSC2(C)CCC(=O)N12 (centres unmarked) | 12.4 |
| CCOC(=O)C1Nc2ccc(OC(F)(F)F)cc2C2C=CCC12 (centres unmarked) | 9.33 |
| C/C(=N\Nc1nc(-c2ccccn2)nc2ccccc12)c1ccc(F)cc1 | 12.5 |
| Cc1ccc(S(=O)(=O)N2CCN(C(=O)CCCN3C(=O)NC4(CCCC4)C3=O)CC2)cc1C | 12.8 |
| CCOc1ccc(C(=O)Nc2ccc(S(=O)(=O)N3CCOCC3)cc2)cc1OCC | 4.08 |
| CCN1CCN(c2ccc(S(=O)(=O)N3CCCCC3)cc2NC(=O)Cc2ccccc2)CC1 | -4.14 |
| COc1ccc(CN(C)C(=O)c2ccc(NC(=O)CC3SC(N4CCCC4)=NC3=O)cc2)c(OC)c1OC (centres unmarked) | 18.8 |
| O=C(/C=C/c1ccccc1[N+](=O)[O-])OCC(=O)N1CCCC1 | 17.4 |
| CCOC(=O)CNC(=O)c1cnn2cccnc12 | 5.04 |
| C=CCn1cc(C(=O)NCCCN(CC)CC)c(=O)c2cc(S(=O)(=O)N3CCC(C)CC3)ccc21 | 4.65 |
| Cc1nn(-c2ccccc2)c(C)c1NC(=O)COC(=O)Cc1ccccc1F | 3.85 |
| Cc1csc2c(N3CCC(C(=O)O)CC3)ncnc12 | 7.44 |
| COc1ccc(/C=C2\SC(=S)N(CCC(=O)N3CCCCC3)C2=O)cc1 | -2.37 |
| O=C(NCc1ccco1)c1cccs1 | 11.1 |
| CCCCOC(=O)Nc1nnc(CC)s1 | 16.7 |
| CCCCOc1ccc(-c2nnn(CC(=O)c3c[nH]c4ccccc34)n2)cc1 | 19.5 |
| CC(C)C(NC(=O)C12CC3CC(CC(C3)C1)C2)C(=O)O (centres unmarked) | 3.71 |
| COc1ccc(OC(C)C(=O)Nc2cccc([N+](=O)[O-])c2)cc1 (centres unmarked) | -10.5 |
| C=C(C)COc1ccc2c(C)c(CC(=O)N3C[C@H]4C[C@@H](C3)c3cccc(=O)n3C4)c(=O)oc2c1C | -10.5 |
| CCn1c(NCCc2ccc(OC)c(OC)c2)nc2c1c(=O)n(C)c(=O)n2C | 9.13 |
| CC1(c2nnc(-c3ccccc3)o2)CC(c2ccc(F)cc2)=NO1 (centres unmarked) | 5.91 |
| COc1ccccc1CNC(=O)C1CCN(S(=O)(=O)c2ccc3c(c2)NC(=O)CO3)CC1 | 8.4 |

| SMILES | hERG current change (%, negative = inhibition) at 1uM [%] |
| --- | --- |
| O=C(Nc1ccccn1)C1CCN(C(=O)c2ccc(F)cc2)CC1 | -0.638 |
| Cc1c(Br)c([N+](=O)[O-])nn1CC(=O)NCc1ccccc1 | 1.49 |
| Cn1c(CCNS(=O)(=O)c2ccccc2)nnc1SCc1cccnc1 | 16 |
| COc1ccc(CC(=O)N2CCCC(CNC(=O)c3ccccc3Cl)C2)cc1 (centres unmarked) | 9.19 |
| O=C(Nc1ccc(N2CCOCC2)cc1)c1cc(-n2cnnc2)ccc1Cl | 11.7 |
| COc1ccc(CN(C(=O)CCC(=O)N2CCCCC2)c2nccs2)cc1OC | -2.89 |
| Cc1ccc(S(=O)(=O)N2CCCC2)cc1C(=O)NC1CCCCC1 | 19.2 |
| COC(=O)C1=C(C)N(c2cccc3ccccc23)C(=O)C1 | -0.602 |
| C=COCCNC(=O)C(=O)NC(C)C | 0.875 |
| Cc1ccc(CNS(=O)(=O)c2ccc(CN3C(=O)c4cccnc4C3=O)s2)o1 | 20.7 |
| Cc1nn(C)c(C)c1/C=C/C(=O)c1cccs1 | 2.33 |
| CC(C)C(=O)c1cn(Cc2ccccc2C#N)c2ccccc12 | 9.56 |
| O=C1C2C3CC(C(Br)C3Br)C2C(=O)N1c1nccs1 (centres unmarked) | 12.4 |
| CC1(C)Cc2c(sc3nc(NCCN4CCOCC4)n4ncnc4c23)CO1 | 3.25 |
| CN(C)S(=O)(=O)c1ccc(C(=O)Nc2nnc(-c3cccs3)o2)cc1 | 14.5 |
| CCC1(C)Cc2c(c(=O)n(-c3ccccc3)c3ncnc(N)c23)CO1 (centres unmarked) | 10.1 |
| CCOC(=O)C1CCN(C(=O)CN(Cc2ccccc2)S(C)(=O)=O)CC1 | 3.31 |
| CCCNC(=O)N1CCCC(C(=O)c2cccc(Cl)c2)C1 (centres unmarked) | 6.91 |
| COCCCNCC(=O)Nc1sc(C)c(C)c1C(=O)OC.O=C(O)C(=O)O | 8.91 |
| O=C(Nc1ccc2c(c1)OCO2)c1c(F)cccc1F | 6.05 |
| CC1CN(C(=O)c2ccc(S(=O)(=O)Nc3ccccc3Cl)cc2)CC(C)O1 (centres unmarked) | -2.72 |
| Oc1ccc(-n2cnnn2)cc1 | 9.57 |
| Cc1ccc(N=Nc2c(=O)[nH]n3c(C)cc(C)nc23)cc1 | 11.5 |

| SMILES | hERG current change (%, negative = inhibition) at 1uM [%] |
| --- | --- |
| CCN1CCN(C(=S)Nc2ccccc2Cl)CC1 | 16.4 |
| c1cn(CCCNc2ncnc3nc[nH]c23)cn1 | 12.5 |
| CC(=O)Nc1ccc(/C=N\NC(=O)CNS(=O)(=O)c2ccc([N+](=O)[O-])cc2)cc1 | 9.81 |
| CCc1cc(=O)oc2c(CN3CCCC3)c(O)c(Cl)cc12 | -1.57 |
| CC12CCC(C(=O)N(c3ccccn3)c3ccccn3)(OC1=O)C2(C)C (centres unmarked) | 3.24 |
| Cc1cc(C)n(C(=O)CCCC(=O)n2nc(C)cc2C)n1 | 7.36 |
| O=C(c1cc([N+](=O)[O-])ccc1Cl)N1CCN(c2ccccc2)CC1 | 4.13 |
| O=C(NCc1ccccc1)c1ccc(CN2CCC(Cc3ccccc3)CC2)cc1 | -0.898 |
| O=C(Cc1n[nH]c(=O)c2ccccc12)NCc1ccc(Cl)cc1 | 3.62 |
| Cc1ccc2c(Cl)cc(Cl)c(OCC(=O)N3CCCC3)c2n1 | 8.78 |
| C=CCNC(=O)c1onc(CSc2ccc(C(C)C)cc2)c1C(=O)O | 8.9 |
| Cc1cc(=O)[nH]c(SCC(=O)NCCOc2ccccc2)n1 | 7.33 |
| O=C(NC(=S)NCc1cccnc1)c1ccccc1 | 2.2 |
| Cc1ccccc1-n1ncc2c(SCC(=O)NC3CCCC3)ncnc21 | 9.68 |
| COCCN(CC(=O)Nc1cccc(C)c1C)C(=O)c1ccc(-n2cccn2)cc1 | 12.7 |
| Cc1cc2cc(C)c3nnc(SCC(=O)Nc4ccc(S(=O)(=O)N5CCCCC5)cc4)n3c2cc1C | -0.905 |
| COc1ccc(NC(=O)C(Cc2ccccc2)NC(=O)c2ccco2)cc1OC (centres unmarked) | 8.87 |
| CNC(=O)c1c(NC(=O)c2cc(-c3cc(C)c(C)cc3O)n[nH]2)sc2c1CCCC2 | 9.36 |
| COc1c2ccoc2c(OCC=C(C)C)c2oc(=O)ccc12 | 17 |
| CCc1nc(SCC(=O)Nc2ccnc3ccccc23)n[nH]1 | 10.4 |
| COC(=O)c1sccc1NC(=S)Nc1cc(C)cc(C)c1 | 2.85 |
| Cc1cccc(C)c1NC(=O)COC(=O)CCC(=O)c1cccs1 | 13.8 |
| Cc1nnc(SCC(=O)Nc2sc3c(c2C(=O)c2ccccc2)CCCC3)s1 | 17 |

| SMILES | hERG current change (%, negative = inhibition) at 1uM [%] |
| --- | --- |
| O=C(Nc1ccccc1)c1nsnc1C(=O)Nc1ccccc1 | 10.8 |
| O=C(Cc1ccccc1)N1CCN(C(=O)c2ccc([N+](=O)[O-])cc2)CC1 | -25.4 |
| COc1ccccc1CN1CCCC(N2CCN(c3ccccc3OC)CC2)C1 (centres unmarked) | 6.71 |
| COCCNC(=O)CN(Cc1ccccc1)S(=O)(=O)c1ccc2nc(C)sc2c1 | 9.19 |
| CN1C(=O)c2ccc(NC(=O)c3c(C(=O)O)cccc3[N+](=O)[O-])cc2C1=O | 7.87 |
| CC(NC(=O)/C(=C\c1ccco1)NC(=O)c1ccco1)C(=O)O (centres unmarked) | 14.1 |
| Cc1c(CCCN)c2ccccc2n1Cc1ccccc1.Cl | 6.34 |
| CCOC(=O)/C=c1\s/c(=C\c2ccc(C(=O)OC)cc2)c(=O)n1CC(=O)Nc1ccccc1.Cl | 10.1 |
| COc1ccc(OCCC(=O)NCCN2CCOCC2)cc1.Cl | 12.7 |
| CCN(C(=S)Nc1cc(S(=O)(=O)N2CCOCC2)ccc1Cl)c1cccc2ccccc12 | 4.45 |
| CN(C(=O)CSc1cn(CC(=O)N2CCOCC2)c2ccccc12)c1ccccc1 | 20.7 |
| Cc1c(NC(=O)c2ccc(COc3ccc4ccccc4c3)o2)c(=O)n(-c2ccccc2)n1C | 18.2 |
| COC(=O)Cc1c(CSc2ccccc2)oc2ccc(O)c(CN(C)C)c12 | -10.8 |
| Cc1cc(C)cc(N2C(N)=NC(N)=NC2c2cccc(Cl)c2)c1.Cl (centres unmarked) | 7.55 |
| O=[N+]([O-])c1cc(/C=N/n2c(-c3ccncc3)n[nH]c2=S)ccc1Cl | 6.47 |
| Cl.NC[C@@]12CCCC1C1CCC2C1 (some centres unmarked) | -10.4 |
| CN(Cc1ccccc1)C(=C(Cl)Cl)C(=C1NCCN1)[N+](=O)[O-] | 10.1 |
| CCN(CC)CCn1c(NC(=O)c2ccc(Cl)cc2)nc2ccccc21 | -0.305 |
| CC(C)(C)C1CCC(C(=O)OCC(=O)Nc2ccc3[nH]c(=O)[nH]c3c2)CC1 (centres unmarked) | 12.6 |
| C=CCN(c1ccccc1)S(=O)(=O)c1cccc(C(=O)NCC(c2ccccc2OC)N2CCCC2)c1 (centres unmarked) | -12.9 |
